# Data taken from the supplement of paper PMC3334620.
# Over roughly 33,000 sequences, “E-score (-0.5 to 0.5)” has its median near -0.021; the highest 2% begin near 0.32. This is one part of the list.
# Target: T1, Zap1 (UniProt P47043)
# T1 sequence: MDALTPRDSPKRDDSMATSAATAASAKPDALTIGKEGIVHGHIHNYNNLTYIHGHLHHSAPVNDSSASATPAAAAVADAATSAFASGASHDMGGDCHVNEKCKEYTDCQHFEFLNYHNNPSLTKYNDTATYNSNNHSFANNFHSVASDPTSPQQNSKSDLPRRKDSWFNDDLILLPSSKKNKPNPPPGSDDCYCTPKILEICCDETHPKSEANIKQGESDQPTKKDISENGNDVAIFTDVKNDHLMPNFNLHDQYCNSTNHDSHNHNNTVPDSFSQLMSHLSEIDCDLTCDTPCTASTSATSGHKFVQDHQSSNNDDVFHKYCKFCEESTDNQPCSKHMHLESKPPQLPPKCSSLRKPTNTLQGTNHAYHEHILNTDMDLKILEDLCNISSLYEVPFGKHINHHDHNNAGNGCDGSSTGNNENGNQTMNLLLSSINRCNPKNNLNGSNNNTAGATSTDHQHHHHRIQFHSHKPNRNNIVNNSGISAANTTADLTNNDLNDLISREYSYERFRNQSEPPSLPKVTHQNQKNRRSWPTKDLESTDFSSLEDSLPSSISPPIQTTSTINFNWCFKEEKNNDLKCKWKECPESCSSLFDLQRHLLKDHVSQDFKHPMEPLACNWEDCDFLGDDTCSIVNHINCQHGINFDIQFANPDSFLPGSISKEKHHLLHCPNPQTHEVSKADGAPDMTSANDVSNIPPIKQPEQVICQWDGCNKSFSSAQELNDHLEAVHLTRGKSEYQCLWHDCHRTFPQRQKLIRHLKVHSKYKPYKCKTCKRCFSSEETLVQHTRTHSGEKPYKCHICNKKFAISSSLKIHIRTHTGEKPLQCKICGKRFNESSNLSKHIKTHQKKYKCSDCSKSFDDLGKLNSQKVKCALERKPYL
# Test: PBM E-score (8-mer binding enrichment) (E-score (-0.5 to 0.5)); higher = stronger / more preferred TF binding; most listed sequences are background and not binding sites
# Conditions: protein concentration: 200 nM; construct: GST-full length
# Summary of the method: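 Masliner-normalised scans of fluorescent anti-GST signal were the basis for scoring. That signal came from GST-tagged yeast transcription factors applied at about 100-200 nM to double-stranded universal all-10-mer Agilent arrays on fresh or once-stripped slides. Each ungapped eight-base word, pooled with its reverse complement, received an E-score from the Universal PBM Analysis Suite.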
row,Sequence,PBM E-score
1,ACTTGATG,0.0331
2,ACAAAATC,0.15
3,CAGCGCCG,-0.17
4,CCCCTTCG,-0.0804
5,GCACATAA,0.132
6,CCAGGTAC,0.17
7,AACCTGCC,-0.127
8,CGGAGAAA,0.0268
9,CAGCAGAC,-0.0981
10,CCGTGTCC,-0.0502
11,ACGTATCA,-0.0535
12,CCAGGTAA,0.041
13,AACTAATA,0.314
14,TAGAGTAA,0.0912
15,AAGGTTCG,-0.0644
16,AGATCAAG,0.00615
17,GTTGGCAA,0.0181
18,TATGTGAA,-0.0187
19,GCCTAACC,0.125
20,CAAAGTCC,-0.074
21,CGGTTCCC,-0.172
22,CTCCAGAC,-0.165
23,GGGACAAA,0.219
24,CAACCGCC,-0.0608
25,TAGGTTAA,0.319

row,Sequence,PBM E-score
1,CTTATGTC,0.00435
2,TCCGTTAA,-0.0545
3,AAGCGCTT,0.0687
4,ATCCGGTG,-0.00636
5,CATGGCCC,0.071
6,CCGAGACA,-0.133
7,CCGTATAC,0.0928
8,CTATAGCC,-0.288
9,CGGTGCAC,-0.235
10,ACTATTCA,0.181
11,CGGCACTC,-0.15
12,AGAGCTAC,-0.184
13,ATTCAGAA,0.181
14,CCGAAGGA,-0.06
15,CACGATCC,0.141
16,GCACAAGC,-0.0159
17,AGGGGCCC,0.0465
18,CTAATTAG,0.245
19,CTGTCCGC,-0.116
20,TGATAGCA,-0.0114
21,ATGTAAAT,0.0136
22,AAATGATA,0.16
23,GACTTTCA,0.101
24,GACAACCC,0.35
25,ATACACGG,0.0273

row,Sequence,PBM E-score
1,AGCGGATG,-0.127
2,ACAACCTA,0.232
3,ACATGGCC,0.0799
4,TTGACCAA,0.23
5,ATAAACTA,0.261
6,ACGAGTCG,-0.0633
7,CGAAGGAG,-0.186
8,CGTAACAA,0.201
9,GAGAGACC,0.145
10,TACATCTA,0.0905
11,ACTCGAAA,0.0377
12,ACGTCCGC,-0.0615
13,ACAACCGT,0.0867
14,GTCTCTGA,0.0136
15,AATGTCAC,0.0971
16,CGCTTTAA,-0.0207
17,ATTCTGTC,-0.145
18,ACATAGCT,-0.138
19,GTTGTCAA,0.0958
20,GCTATTAA,0.176
21,AGAAAACC,0.192
22,GGAATACC,0.0178
23,CCCGGTCA,-0.0409
24,GCACATGA,-0.177
25,TCACTTAA,0.164

row,Sequence,PBM E-score
1,ACCATTAG,0.18
2,GTAATACA,0.0684
3,ATATTGAC,-0.0127
4,AAGCCCCT,-0.151
5,CGACGTTA,0.114
6,ACTACGGC,-0.131
7,CAAGCGGC,-0.00088
8,GACGCGGC,-0.0345
9,CTCTTTAC,-0.0955
10,ACTTGACA,-0.142
11,TCAAGGAA,0.0133
12,TCCCGAAA,0.0471
13,AATCGCCA,-0.0758
14,AGTGGTAT,0.151
15,ACAAGTAT,-0.0701
16,AAGAGTGC,-0.122
17,AATTTGGT,0.26
18,ACCACCCA,0.252
19,ATGCTCCG,-0.237
20,AGACTTAC,-0.165
21,AATGGATG,0.0867
22,ACAGGTAA,0.209
23,ACACAACA,0.0276
24,AATGTTTC,-0.00763
25,GTTCTGGA,0.0591

row,Sequence,PBM E-score
1,CTTCCCAA,-0.213
2,GTGGGGGA,-0.317
3,GATATAAC,0.207
4,ATCACCCG,0.166
5,CGATTGGC,-0.06
6,CTCGTCCC,-0.232
7,CTCCAGCC,-0.333
8,ACCTTTCG,0.292
9,ATTATTTG,0.0556
10,ACCCACGA,0.266
11,GAGTCCGA,-0.0125
12,GCCTAAGA,-0.119
13,GTGACTAA,0.15
14,GGCGAGTA,-0.179
15,GAGGCTGA,-0.0123
16,ATATCTCA,0.0986
17,TACGAGTA,0.0779
18,CCGAGGTC,0.281
19,AAGTAAGC,0.0576
20,TCTCCTCA,-0.174
21,GGAGTCTA,-0.125
22,ATCCTTAA,0.0254
23,CGCGGACA,0.0596
24,CGTGTTTA,0.0147
25,GCCAAGGA,-0.339

row,Sequence,PBM E-score
1,AACGGGGA,-0.0385
2,CGCTTTAC,-0.0313
3,GCCTGCGA,-0.168
4,GCAATTGA,0.0395
5,AATGAACT,-0.0589
6,TCATCCAA,-0.017
7,GCGGGAGA,-0.309
8,CTGTTAGC,-0.103
9,ACTAAATC,0.0999
10,CAGTATAG,0.167
11,AAAGATGA,-0.00594
12,CACACGGC,-0.0901
13,AAGATGAC,0.0452
14,CAATCACC,0.146
15,GGAAGTGA,0.00846
16,AGATTGAG,0.0784
17,CAAAACGC,0.0726
18,CGCGCGCC,0.1
19,ATAAGTAC,0.139
20,ACAGAGGC,-0.223
21,CCAAGGCG,-0.266
22,ATTAAGGG,0.147
23,CCGCAGAC,-0.0797
24,CGTTTTTC,0.0868
25,GACACCGC,-0.115

row,Sequence,PBM E-score
1,TGAGTGCA,-0.113
2,AAGAAGGA,-0.203
3,AAGGATAT,0.041
4,GAGTCAAC,-0.169
5,AATTAGGA,-0.0106
6,AACACCCG,0.177
7,AATTTTTA,0.153
8,ACACCGCA,0.195
9,CCCGCAAG,-0.21
10,GACACCTC,-0.0633
11,CACTCTTA,0.0979
12,ACTCCAGA,-0.174
13,GCCCGGGC,-0.136
14,GCGTGTCA,0.00317
15,CTTGAAAC,0.158
16,AGAACGAT,0.103
17,ACTAGTAG,0.0456
18,CTTCGACA,0.0154
19,ATGCGCAC,-0.0707
20,CGGAATAC,0.101
21,ACACTCTA,0.0716
22,AGGAAGAG,-0.103
23,CATCCTAG,-0.154
24,ATCGTACA,-0.00473
25,AGGTCTCA,0.16

row,Sequence,PBM E-score
1,ACCCGTCT,-0.0166
2,TCCTCACA,0.0409
3,TACTAAAA,0.22
4,ACGGAGAG,-0.181
5,GAGAGTGA,-0.0772
6,AAATGTCA,-0.105
7,GGGAAACA,0.0145
8,CCGAACGA,-0.0693
9,AGCCCGCG,-0.108
10,AATGTATG,0.0128
11,ATTTTTTA,0.192
12,GATCGCCA,-0.194
13,TGTCGGAA,-0.0861
14,CATCCATG,-0.0427
15,GACCGGAA,-0.04
16,CAAACGAC,0.116
17,AAAGCGTG,-0.104
18,AGGGCGAA,-0.094
19,CCAGCCCA,-0.153
20,CCTGAGGC,-0.253
21,CCACACGC,-0.0746
22,GACCACGC,-0.00263
23,TCTCGCCA,-0.206
24,ACCTGGTC,0.107
25,CGTGCTAC,-0.181

row,Sequence,PBM E-score
1,CAAGTAAA,-0.0381
2,CGTTGTTC,-0.0987
3,CTGGTAGA,0.208
4,CGGGGTAA,0.299
5,CCATCCAA,-0.0626
6,CATTCGGA,-0.0464
7,ACAATTTC,-0.111
8,ATCTGCCG,-0.0036
9,GCTTCCGA,-0.0201
10,CTCTGTAA,-0.0317
11,ATATGGTG,0.03
12,GACCAGTA,0.0618
13,CCAACTTC,-0.0523
14,ACCCCCAG,-0.0789
15,GTGAATTA,0.206
16,CTTAGAGC,0.0313
17,AGCTTCCA,-0.202
18,ACAGAGGT,0.283
19,AGCGATAA,0.00415
